# Experimental data from PubChem BioAssay AID743255 (National Center for Advancing Translational Sciences (NCATS), 2014).
# In all, about 390,000 compounds went through this assay and about 910 (0.23%) were called active. About 5% were inconclusive and are not listed. Calls follow the shape of the dose curve; as a rule, active = well fitted inhibition curve with a large enough effect; inconclusive = small, poorly fitted or top-dose-only effect; inactive = no such curve, though single readings can be large or run the other way. This is a selection; strong and weak results do not stand in their true shares.
# Molecular target: Ubiquitin carboxyl-terminal hydrolase 1 (Homo sapiens) (UniProt O94782)
# Chain of UniProt O94782 (O94782 whole entry, looked up): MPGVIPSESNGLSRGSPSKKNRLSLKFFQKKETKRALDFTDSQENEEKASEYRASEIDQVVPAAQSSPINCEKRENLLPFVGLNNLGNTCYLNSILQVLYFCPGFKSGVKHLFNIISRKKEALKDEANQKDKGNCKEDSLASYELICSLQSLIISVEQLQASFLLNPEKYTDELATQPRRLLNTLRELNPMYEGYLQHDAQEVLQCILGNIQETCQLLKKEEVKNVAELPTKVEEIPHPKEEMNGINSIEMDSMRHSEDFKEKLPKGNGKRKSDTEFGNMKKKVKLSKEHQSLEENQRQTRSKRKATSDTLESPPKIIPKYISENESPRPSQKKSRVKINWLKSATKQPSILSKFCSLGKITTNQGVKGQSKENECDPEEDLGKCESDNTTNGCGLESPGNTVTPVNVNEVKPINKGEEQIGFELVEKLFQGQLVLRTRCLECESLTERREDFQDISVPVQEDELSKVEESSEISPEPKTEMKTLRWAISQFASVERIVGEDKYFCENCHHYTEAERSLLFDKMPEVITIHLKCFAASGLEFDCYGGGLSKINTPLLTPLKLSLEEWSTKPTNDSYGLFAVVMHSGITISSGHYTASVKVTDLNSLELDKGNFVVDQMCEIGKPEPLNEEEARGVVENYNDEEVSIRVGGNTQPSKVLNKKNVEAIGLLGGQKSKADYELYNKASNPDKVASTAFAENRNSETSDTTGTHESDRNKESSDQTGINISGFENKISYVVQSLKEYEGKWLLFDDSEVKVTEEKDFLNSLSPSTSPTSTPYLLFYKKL
# Experiment: Inhibitors of USP1/UAF1: Primary Screen; also: nearly all actives have a fitted effect of over 60% in size
# Conditions: recombinant USP1/UAF1, Ub-Rhodamine cleavage fluorescence; activity change, negative = inhibition: at 57.1 µM (top of the series)
# Outline: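 Step one: compound is pinned into 1nM USP1/UAF1 in HEPES pH 7.8 buffer with TCEP. Step two: 15 min room-temperature incubation. Step three: Ub-Rho (150nM final) starts cleavage, tracked by fluorescence over six one-minute reads.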
# % is scaled to controls: 0 for no effect and ±100 for the full control effect; potency is read from the fitted curve at half-maximal effect.
SMILES,"activity change, negative = inhibition",Potency
CCCNC(=O)CCn1nc(-c2ccc(C)cc2)c2ccccc2c1=O,inactive: -18.2%,
CCC[C@H]1CCCC/C=C\CCCC(=O)OCCN1C(=O)OC(C)(C)C,inactive: -2.42%,
CCNc1cccc2c1C(=O)N(C)C2=O,,active: 15.8 µM
O=C1/C(=C/c2ccc(N3CCOCC3)o2)SC(=Nc2ccccc2)N1CCc1c[nH]c2ccccc12,inactive: 49.9%,
Nc1ccc2nc3c(=O)[nH]c(=S)[nH]c3nc2c1,,active: 28.2 µM
O=C(N[C@H]1C/C=C\C[C@@H](CC(=O)N(CCO)Cc2ccccc2)C(=O)N[C@H](Cc2c[nH]c3ccccc23)COC1=O)OCC1c2ccccc2-c2ccccc21,inactive: -14.1%,
C=CC[C@@H](CC(=O)N[C@@H](CO)Cc1ccccc1)C(=O)N[C@H](COC(=O)[C@H](CC=C)CC(=O)OC(C)(C)C)Cc1ccccc1,inactive: -25.7%,
C[C@@H]1CN([C@H](C)CO)C(=O)c2cc(NC(=O)NC3CCCCC3)ccc2O[C@H]1CN(C)S(C)(=O)=O,inactive: -18.8%,
COC(=O)C1=C(C)NC(C)=C(C(=O)OC)C1C(=O)OCC(=O)N1c2ccccc2CC1C (configuration not stated),inactive: -11.6%,
CCc1ccc(-c2cc(C)no2)cc1S(=O)(=O)Nc1ccc(C)cn1,inactive: -8.73%,
O=c1[nH]c(N2CCOCC2)cc2ccccc12,,active: 10 µM
CCN(CC)c1ccc(/C=C(/C#N)c2nc3ccccc3[nH]2)c(OC(C)C)c1,inactive: 65.5%,
COC(=O)c1cc(S(=O)(=O)N2CCN(c3ccc(F)cc3)CC2)cn1C,inactive: -6.99%,
C[C@@H]1CN([C@H](C)CO)C(=O)CCCn2nncc2CO[C@@H]1CN(C)C(=O)c1ccc(N2CCN(C)CC2)cc1,inactive: -18.9%,
CC1CN(c2nc3ccccc3nc2C(C#N)C(=O)NCc2ccc3c(c2)OCO3)CC(C)O1 (configuration not stated),inactive: 30.9%,
C[C@H](CO)NC(=O)c1nc[nH]c1C(=O)N[C@@H](C)c1ccccc1,inactive: -15.4%,
CC(=O)Nc1ccc(NC(=O)C(C)OC(=O)/C(C#N)=C/c2ccc(N(C)C)cc2)cc1 (configuration not stated),inactive: 160%,
C/C(=N\Nc1ccc(C(=O)c2c(C)cc3ccccn23)cc1[N+](=O)[O-])c1ccc(O)cc1,inactive: -10%,
COC(=O)[C@H]1C[C@@H]1[C@H](NC(=O)c1cccnc1)c1ccccc1,inactive: -14.7%,
COC(=O)c1c(-c2ccccc2)c(-c2ccccc2)nn(C)c1=O,,inactive
C[C@@H]1O[C@@H](O[C@H]2[C@H](Oc3cc(O)c4c(c3)O[C@H](c3ccc(O)cc3)CC4=O)O[C@H](CO)[C@@H](O)[C@@H]2O)[C@H](O)[C@H](O)[C@H]1O,inactive: -30.1%,
C[C@H]1CN([C@@H](C)CO)C(=O)CCCn2nncc2CO[C@H]1CN(C)C(=O)c1ccc2ccn(C)c2c1,inactive: -24.4%,

SMILES,"activity change, negative = inhibition",Potency
CN1CCC23c4ccccc4NC1C21CCN(C)C3Nc2ccccc21,inactive: -14.9%,
Cc1ccc(C)c(Cn2nc(-c3cc(C)ccc3C)ccc2=O)c1,inactive: -21.4%,
Cn1c(=O)c(NCCc2ccccc2)c2c3c(cccc31)C(=O)c1ccccc1-2,inactive: 74.4%,
Cc1nnc(NC(=O)CSc2nccn2Cc2ccc(F)cc2)s1,inactive: -21.2%,
C/C=C(\C)C(=O)NCCN1C2=NC[C@H](Cc3ccccc3)N2C[C@@H]1Cc1ccc(OC)cc1,inactive: -24.5%,
Cc1ccc2c(c1)N(CC(=O)NCCc1ccc(Cl)cc1)C(=O)c1cccnc1O2,inactive: -14.5%,
CC(=O)Nc1ccc(NC(=O)CSc2nc3ccccc3nc2N2CCCCC2)cc1,inactive: -20.1%,
COC(C[C@@H]1O[C@@H]1C(=O)[C@@H](C)OCc1ccccc1)OC,inactive: -18.5%,
COc1ccc(C2CC(=O)N3CN(C4CCCCC4)CSC3=C2C#N)c(OC)c1 (configuration not stated),,active: 2.24 µM
CN1CCN(C(=O)C2=C[C@H](c3ccc(C(F)(F)F)cc3)C[C@H](OCCCCO)O2)CC1,inactive: -20.6%,
CC(C)NC(=O)CSc1cn(CC(=O)N2CCCCCC2)c2ccccc12,inactive: -27%,
CCOC(=O)/C(=C\c1ccc(N2CCC(c3ccccc3)=N2)cc1)C(C)=O,,active: 28.2 µM
COC(=O)c1ccccc1NC(=O)Cn1nnc(-c2ccc(OC)cc2)n1,inactive: -13.5%,
CCn1c(C)c(C)c2cc(C(=O)N3CCN(c4ccccc4)CC3)ccc21,inactive: -11.3%,
COc1ccc([C@H]2C[C@@H](O)[C@H](n3cc(-c4ccc(F)cc4)nn3)CN2CC2CCCCC2)cc1,inactive: -5.36%,
OCC[C@H]1C[C@H](O)[C@@H](O)[C@@]2(OCc3ccccc32)O1,inactive: -6.08%,
OCC[C@H]1C[C@@H](O)[C@H](O)[C@]2(CCCO2)O1,inactive: -8.97%,
O=C(Nc1cccc(F)c1)C1CCCN(S(=O)(=O)c2cccc3cccnc23)C1 (configuration not stated),inactive: -23.6%,
O=C(C[C@@H]1C/C=C/CC[C@@H](Cc2ccc(F)cc2)C(=O)O[C@@H](c2ccccc2)CNC1=O)NCCO,inactive: -26.3%,
CCC(C)[C@H]1CNCCN1CCc1cccc(F)c1 (some centres not stated),inactive: 17.8%,
COc1ccc(NC(=O)C2=CC(c3ccco3)=NS(=O)(=O)N2C)cc1OC,inactive: -8.63%,
CC(C)(C)S(=O)(=O)/C(C#N)=N/Nc1ccc(S(N)(=O)=O)cc1,inactive: 13%,

SMILES,"activity change, negative = inhibition",Potency
CCOC(=O)N1CCN(C(=O)/C(=C\c2cccs2)NC(=O)c2cccs2)CC1,inactive: -18.2%,
Cc1cccc(NC(=O)c2sc3nc(-c4cc5ccc(O)cc5oc4=O)[nH]c(=O)c3c2C)c1,inactive: 308%,
COc1ccc(OC)c(/C=c2\sc3nc(-c4cccs4)nn3c2=O)c1,,active: 31.6 µM
O=S(=O)(c1ccc2nc(N3CCN(c4ccccc4F)CC3)ccc2c1)N1CCCCC1,inactive: -21.4%,
CC(=O)N(C1=C(Cl)C(=O)c2ccccc2C1=O)c1ccc(C(=O)O)cc1,,active: 14.1 µM
O=C1NC[C@H](c2ccccc2)OC(=O)[C@@H](Cc2ccc(F)cc2)C/C=C\C[C@H]1CC(=O)N(CCO)Cc1ccccc1,inactive: -23.9%,
CC(C)(CS(=O)(=O)[O-])NC(=O)CC[N+](C)(C)CCO,inactive: 35.1%,
COc1ccc(-c2cc(C(F)(F)F)n3ncc(C(=O)NCC4CCCO4)c3n2)cc1OC (configuration not stated),inactive: 28.9%,
N#Cc1c(C(F)(F)F)cc(-c2cccs2)nc1SCC(=O)Nc1cccc(C(F)(F)F)c1,inactive: 56.4%,
CC(=O)c1cccc(NC(=O)C2CCN(S(=O)(=O)c3ccccc3)CC2)c1,inactive: -16.3%,
CN(Cc1ccc(F)cc1)S(=O)(=O)c1nnc(NC(=O)c2ccccc2)s1,inactive: -11.6%,
CC(=O)Nc1ccc(S(=O)(=O)NC2=C(N3CCN(Cc4ccccc4)CC3)C(=O)c3ccccc3C2=O)cc1,inactive: -15.6%,
COc1ccc(S(=O)(=O)N(C)C[C@@H]2Oc3cc(Br)ccc3S(=O)(=O)N([C@H](C)CO)C[C@@H]2C)cc1,inactive: -26.9%,
Cc1csc(=Nc2c(C)n(C)n(-c3ccccc3)c2=O)n1Cc1ccccc1,inactive: 0.322%,
O=C(O)CCCNC(=O)/C=C/c1ccco1,inactive: 36.6%,
COc1ccc(OC)c(CNC(=O)CCn2c(=O)c3cccn3c3ccc(F)cc32)c1,inactive: -8.43%,
C[C@H]1NC(=O)[C@@]2(C)[C@@H](c3ccccc3)[C@H]3COc4ccccc4[C@@H]3N2C1=O,inactive: -28.2%,
CCc1nc(Nc2ccc3nccnc3c2)c2oc3ccccc3c2n1,inactive: 316%,
CC(C)(C)OC(=O)C[C@H]1C/C=C\C[C@@H](CC(=O)N[C@@H](CO)Cc2ccccc2)C(=O)NC[C@H](c2ccccc2)OC1=O,inactive: -3.69%,
C[C@H](CO)N1C[C@H](C)[C@H](CN(C)C(=O)c2cc(-c3ccccc3)on2)OCc2cnnn2CCCC1=O,inactive: -9.9%,
CCC(C)NC(=O)c1ccc2nc(Cc3ccc(OC)cc3)oc2c1 (configuration not stated),inactive: -13.2%,
Cc1ccc(C(=O)NNc2cc(N3CCCC3)nc(N3CCCC3)n2)cc1,,active: 14.1 µM

SMILES,"activity change, negative = inhibition",Potency
O=C(NCc1ccc(OC(F)(F)F)cc1)c1cccc2c1C(=O)c1ccc(N3CCCCC3)cc1S2(=O)=O,,active: 25.1 µM
c1ccc(CCCc2nc(-c3ccccn3)no2)cc1,inactive: 29.5%,
O=C(c1ccco1)[C@@H]1[C@@H]2C(=O)N(c3ccc(Br)cc3)C(=O)[C@@H]2C2c3ccccc3C=CN21 (some centres not stated),,active: 15.8 µM
N#C/C(=C/C1=C(N2CCOCC2)C(=C/c2ccccc2)/CC1)C(=O)Nc1ccccc1F,inactive: -7.87%,
C[C@@H]1COC(=O)[C@@H](CC(=O)OC(C)(C)C)C/C=C\C[C@@H](CC(=O)N(CCO)Cc2ccccc2)C(=O)N1,inactive: -21.1%,
C[C@@H]1CN([C@H](C)CO)C(=O)CCCn2nncc2CO[C@@H]1CN(C)S(=O)(=O)c1ccc(Cl)cc1,inactive: -19.7%,
Cc1cccc(CNC(=O)Cn2ccc3cc(S(=O)(=O)N4CCCC4)ccc32)c1,inactive: -7.59%,
O=C(C[C@@H]1C/C=C\C[C@H](NC(=O)OCC2c3ccccc3-c3ccccc32)C(=O)OC[C@@H]2CCCN2C1=O)N[C@@H](CO)Cc1ccccc1,inactive: -7.36%,
CC(=O)Oc1oc(-c2ccccc2)nc1C=Nc1ccc(N(C)C)cc1,,active: 25.1 µM
Cc1cccc(N2C(=O)c3cccc4c(N)ccc(c34)C2=O)c1,,active: 28.2 µM
CCC(C)OC(=O)/C(C#N)=C\c1ccc(-c2ccccc2Cl)o1 (configuration not stated),inactive: 72.1%,
CC(=O)n1c(C=Nc2ccc(Cl)cc2)c(O)c2ccccc21,inactive: -12.1%,
CCN(CC)c1ccc(/C=C(/C#N)C(=O)NC(C)C)o1,,active: 25.1 µM
CC[C@]12CCCN3CCc4c(n(c5ccccc45)[C@@](O)(C(=O)OC)C1)[C@@H]32,inactive: -17.6%,
CC1C(=O)N2CCCc3cc(S(=O)(=O)N4CCC(C(N)=O)CC4)cc1c32 (configuration not stated),inactive: -9.55%,
C[C@@H]1CN([C@@H](C)CO)C(=O)CCCn2cc(nn2)CO[C@H]1CN(C)S(=O)(=O)c1ccc(Oc2ccccc2)nc1,inactive: -25.7%,
C[C@@H]1CN([C@H](C)CO)C(=O)CCCn2cc(nn2)CO[C@H]1CN(C)S(=O)(=O)c1ccc2ccccc2c1,inactive: -18%,
CCCC(=O)Nc1nnc(S(=O)(=O)N2CCCCCC2)s1,inactive: -8.46%,
C[C@@H]1CCC[C@]2(O[C@@H](CCO)C[C@H](O)[C@H]2O)O1,inactive: 2.8%,
Nc1ccn([C@@H]2O[C@H](CO)[C@@H](O)[C@H]2O)c(=O)n1,inactive: -24%,
CN(C)CCC(c1ccccc1)c1ccccn1 (configuration not stated),,inactive
